Test results reported in publication PMC4336329 (PLoS ONE, 2015).
Among all 310,000 compounds or so, about 2,200 (0.71%) showed an effect of 50% or more. The effect is printed as a negative number. This is one part of the list.

Biological target: human ether-à-go-go-related gene (hERG) potassium channel (human, UniProt Q12809)
Test: primary screen, population patch clamp on CHO cells stably expressing hERG

human ether-à-go-go-related gene (hERG) potassium channel, sequence (Q12809 whole entry, looked up): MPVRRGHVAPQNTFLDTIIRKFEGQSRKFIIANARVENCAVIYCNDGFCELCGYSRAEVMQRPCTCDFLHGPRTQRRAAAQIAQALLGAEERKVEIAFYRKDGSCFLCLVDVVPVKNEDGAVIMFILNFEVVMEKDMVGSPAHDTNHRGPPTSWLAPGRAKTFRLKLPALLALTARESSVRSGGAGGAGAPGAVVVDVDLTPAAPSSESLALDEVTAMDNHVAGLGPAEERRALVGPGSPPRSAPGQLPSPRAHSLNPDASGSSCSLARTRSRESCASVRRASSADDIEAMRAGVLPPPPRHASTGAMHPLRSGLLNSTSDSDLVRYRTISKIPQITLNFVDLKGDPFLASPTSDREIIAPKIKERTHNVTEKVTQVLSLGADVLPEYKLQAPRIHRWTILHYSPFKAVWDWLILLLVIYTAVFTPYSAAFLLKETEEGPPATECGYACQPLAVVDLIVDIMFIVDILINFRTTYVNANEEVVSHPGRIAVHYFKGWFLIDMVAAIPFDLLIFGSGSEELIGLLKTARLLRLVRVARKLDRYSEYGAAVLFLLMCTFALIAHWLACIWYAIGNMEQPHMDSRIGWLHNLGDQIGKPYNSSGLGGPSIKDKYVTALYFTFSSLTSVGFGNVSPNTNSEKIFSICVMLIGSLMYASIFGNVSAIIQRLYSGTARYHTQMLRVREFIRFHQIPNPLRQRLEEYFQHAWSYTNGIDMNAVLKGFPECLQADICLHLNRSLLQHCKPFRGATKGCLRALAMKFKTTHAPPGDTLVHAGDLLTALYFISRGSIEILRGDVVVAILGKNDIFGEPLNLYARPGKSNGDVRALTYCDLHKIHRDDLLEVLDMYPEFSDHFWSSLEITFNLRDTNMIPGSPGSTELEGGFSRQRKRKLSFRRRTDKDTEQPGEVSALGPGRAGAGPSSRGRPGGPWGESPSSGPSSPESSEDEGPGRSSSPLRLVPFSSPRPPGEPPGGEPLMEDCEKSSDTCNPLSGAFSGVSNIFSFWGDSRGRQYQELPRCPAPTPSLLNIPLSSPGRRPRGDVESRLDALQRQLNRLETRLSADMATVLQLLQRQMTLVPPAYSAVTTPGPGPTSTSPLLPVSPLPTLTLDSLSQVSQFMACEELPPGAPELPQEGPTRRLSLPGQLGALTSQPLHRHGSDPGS

Row | SMILES | hERG current change (%, negative = inhibition) at 1uM [%]
1 | Cc1c(C(=O)O)cccc1-n1c(C)cc(/C=N/NC(=O)c2cc3ccccc3o2)c1C | 16.1
2 | N#CC(C#N)=C(N)c1cccnc1 | 23.3
3 | CCCCC(=O)N1CCN(c2nc3ccc(F)cc3s2)CC1 | -11.2
4 | CC(=O)Nc1ccc(NC(=O)COC(=O)C2(c3ccc(Cl)cc3)CCCC2)cc1 | 12.5
5 | CC1CC1C(=O)OCc1cc(=O)n2cc(Br)ccc2n1 (stereo not shown) | 3.63
6 | CCO[C@@H]1OC(C(=O)NCc2nc3ccccc3[nH]2)=C[C@H](c2ccccc2)[C@H]1CCCO | -6.06
7 | Cc1ccccc1CNC(=O)C(=O)NCCC1CCCCN1S(=O)(=O)c1ccccc1 (stereo not shown) | 3.33
8 | CN(C)C=O.O=C(COC(=O)c1ccc(S(=O)(=O)N2CCCC2)cc1)Nc1cccnc1Cl | 23.5
9 | Cc1cccc(NC(=S)NC(NC(=O)OCc2ccccc2)C(Cl)(Cl)Cl)c1 (stereo not shown) | 13.1
10 | O=C(Nc1ccc2c(c1)OCO2)C(c1ccc(Cl)cc1)N1CCC2(CC1)OCCO2 (stereo not shown) | 3.41
11 | CCn1cc(-c2ccccc2)c(C(=O)O)c1-c1ccc(OC)cc1 | 10.9
12 | O=C(C1=C[C@@H]2[C@H]3C(=O)N(c4ccccc4)C(=O)[C@H]3[C@@H](C(=O)c3ccc(Cl)cc3)N2C=C1)c1ccccc1 | 10.4
13 | CC(NCc1cccnc1)c1ccccc1 (stereo not shown) | 12.7
14 | Cl.c1ccc(CNC2=NCCCCC2)cc1 | 0.633
15 | CCN(C(=O)CN1C(=O)/C(=C/c2ccccc2F)SC1=S)C1CCS(=O)(=O)C1 (stereo not shown) | 10.2
16 | O=C(Oc1ccc2ccccc2c1)C1CCC1 | 13.6
17 | CC(C)CCOCC(=O)Oc1ccccc1C(=O)O | 14.2
18 | Cc1ccc(C2(c3ccccc3)NC(=O)N(CC(=O)N(C)C3CCS(=O)(=O)C3)C2=O)cc1C (stereo not shown) | 0.57
19 | CCn1c(SCC(=O)NCC2CCCO2)nc2ccccc21 (stereo not shown) | 5.18
20 | CCc1cccc2c(C(=O)C(F)(F)F)cn(CC(=O)N3CCOCC3)c12 | 11.6
21 | Cc1ccccc1NC(=O)CSc1nnc(-c2ccccc2)n1-c1ccccc1 | 5.76
22 | Cc1nc2nc(CSc3nc4ccccc4s3)cc(=O)n2[nH]1 | 13

Row | SMILES | hERG current change (%, negative = inhibition) at 1uM [%]
23 | CC(NC(=O)/C(=C/c1ccc(OC(F)F)cc1)c1ccccc1)c1ccccc1 (stereo not shown) | -15.4
24 | COc1cccc(-c2c3c([nH]c(=O)c2C#N)CCc2cc(OC)ccc2-3)c1 | 15.3
25 | Cl.Fc1ccc(Cn2nnnc2CN2CCc3ccccc3C2)cc1 | 7.64
26 | Cc1cc(S(=O)(=O)N(Cc2ccccc2Cl)c2ccc3c(c2)CCC3)ccc1-n1cnnn1 | 19.2
27 | O=C(Oc1ccccc1O)c1cccc2ccccc12 | 6.76
28 | COc1ccc(C(=O)NNC(=O)CN2CCC(n3nnc4cc(F)ccc43)CC2)cc1 | -2.92
29 | CCCCOP(=O)(c1ccc(N(C)C)cc1)C(O)c1ccc(N(C)C)cc1 (stereo not shown) | -3.17
30 | O=C(CSCc1ccccc1)Nc1ccccc1C(=O)Nc1ccc(C(=O)O)cc1 | 11
31 | O=C(Nc1sc2c(c1C(=O)NCc1cccnc1)CCCC2)c1ccco1 | 14.8
32 | COc1ccc(/C=C2/SC(=S)N(CCC(=O)O)C2=O)cc1 | -3.44
33 | Cc1ccc(C)c(N2CCN(C(=O)Cn3ncn4cccc4c3=O)CC2)c1 | 11.7
34 | CN(CC(=O)Nc1cccc(F)c1)C(=O)c1cccc(S(=O)(=O)N2CC3(C)CC2CC(C)(C)C3)c1 (stereo not shown) | 11.3
35 | Cc1nn(-c2ccc(N3CCOCC3)nn2)c(C)c1CCC(=O)NCc1ccccc1 | 1.86
36 | COCCN(C(=O)CSc1n[nH]c(-c2ccccc2)n1)c1c(N)n(Cc2ccccc2)c(=O)[nH]c1=O | -2.36
37 | CCC(C)NC(=O)c1cn(CC)c2ccc(S(=O)(=O)N3CCCCCC3)cc2c1=O (stereo not shown) | 2.25
38 | CCN1C(=O)[C@@H]2[C@@H](c3ccc(-c4ccc5c(c4)OCO5)c(OC)c3)N3CCCC[C@@]3(C(=O)OC)[C@@H]2C1=O.O=C(O)C(F)(F)F | 11.4
39 | O=C(CCNC(=O)c1ccccc1Cl)Nc1ccc(S(=O)(=O)Nc2ncccn2)cc1 | 7.06
40 | COc1ccc(SC[C@H](Cc2ccccc2)N2CC[C@@H](O)CCC2=O)cc1 | 7.19
41 | Cn1c(SCCC#N)nnc1-c1ccccc1F | 2.86
42 | Cc1ccc(NC(=O)CCNS(=O)(=O)c2ccc3c(c2)oc(=O)n3C)cc1C | -5.43
43 | COC(=O)C1=C(C(=O)OC)[C@@H]2N(C)c3ccc(OC)cc3[C@@]23C[C@@H](C(=O)OC)N(C(=O)c2cc(C)oc2C)C3=N1 | 2.97
